Laboratory results reported in the supplement of paper PMC6206098.
± gives the uncertainty stated by the source. The sequences are guide strands of siRNAs; only the seed at positions 2 to 7 varies.

How the values were obtained:
[1] = test system: 3LL; test: cell viability relative to siNT1 control; higher = less toxic; details: concentration: 10 nM; 96 h; Mus musculus;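 further: Luminescence-based viability of cells reverse transfected in 384-well plates with lipid-complexed siRNAs built on a non-toxic 19mer backbone whose passenger strand carries 2′-O-methyl groups at positions 1 and 2, triplicates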
[2] = test system: H460; test: cell viability relative to lipid-only control; HeyA8 human ovarian and H460 human lung cancer; M565 mouse liver and 3LL mouse lung cancer; siNT1 is a non-toxic control siRNA; higher = less toxic; details: concentration: 10 nM; 96 h; Homo sapiens
Description: (§1)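 Arrayed screen of 4096 siRNA duplexes, each carrying one of all possible 6mer seeds at guide-strand positions 2-7 in a fixed neutral 19mer scaffold (constant flanks: U at position 1, then ACAUGUAAACCA, plus a 3' AA overhang). The passenger strand is 2'-O-methylated at positions 1-2 so only the guide strand loads into RISC. Duplexes were reverse-transfected at 10 nM with RNAiMAX in triplicate in 384-well plates; viability was read by CellTiter-Glo ATP content 96 h after transfection. Values are % viability normalised to lipid-only wells (HeyA8, H460, M565) or to siNT1 (3LL).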

[3] = test system: HeyA8; test: as above; details: concentration: 10 nM; 96 h; Homo sapiens
Description: as §1

[4] = test system: M565; test: as above; details: concentration: 10 nM; 96 h; Mus musculus
Description: as §1
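Wherever cell viability relative to lipid-only control is given: reverse lipid transfection in 384-well plates, in triplicate, of duplexes on a non-toxic 19mer backbone with passenger strand 2′-O-methylated at positions 1 and 2, luminescence viability read-out.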

| Sequence | cell viability [1] | cell viability [2] | cell viability [3] | cell viability [4] |
| --- | --- | --- | --- | --- |
| UCGACCAACAUGUAAACCAAA | 96.8 ± 25% | 84.4 ± 26% | 87.9 ± 6.5% | 78.3 ± 23% |
| UCGACCCACAUGUAAACCAAA | 54.7 ± 8.3% | 77.4 ± 15% | 69.2 ± 2.4% | 73.9 ± 2.9% |
| UCGACCGACAUGUAAACCAAA | 94.3 ± 19% | 81.4 ± 14% | 87.6 ± 4.4% | 66.9 ± 7.1% |
| UCGACCUACAUGUAAACCAAA | 80 ± 14% | 66.8 ± 2.6% | 80.4 ± 2.9% | 55.7 ± 6.1% |
| UCGACGAACAUGUAAACCAAA | 94 ± 21% | 70.3 ± 16% | 84.9 ± 3.5% | 65.6 ± 10% |
| UCGACGCACAUGUAAACCAAA | 76.9 ± 12% | 61 ± 1.9% | 72 ± 4.9% | 64 ± 5% |
| UCGACGGACAUGUAAACCAAA | 93 ± 17% | 62.2 ± 8.8% | 87 ± 4.9% | 64.8 ± 15% |
| UCGACGUACAUGUAAACCAAA | 89.7 ± 19% | 99.8 ± 14% | 77.2 ± 9.6% | 59.7 ± 3.2% |
| UCGACUAACAUGUAAACCAAA | 90 ± 14% | 93.1 ± 8.4% | 84.3 ± 7.3% | 69.2 ± 6.4% |
| UCGACUCACAUGUAAACCAAA | 74.9 ± 21% | 63.3 ± 3% | 85.2 ± 5.9% | 16.5 ± 2.2% |
| UCGACUGACAUGUAAACCAAA | 92.6 ± 15% | 83.4 ± 9.4% | 82.8 ± 5.5% | 74.5 ± 8.3% |
| UCGACUUACAUGUAAACCAAA | 94.4 ± 14% | 81.7 ± 11% | 86.11 ± 0.39% | 68 ± 12% |
| UCGAGAAACAUGUAAACCAAA | 89 ± 18% | 65.5 ± 2.1% | 84.6 ± 10% | 68.2 ± 5.7% |
| UCGAGACACAUGUAAACCAAA | 81.4 ± 16% | 71.7 ± 8.7% | 77.5 ± 6.1% | 25 ± 3% |
| UCGAGAGACAUGUAAACCAAA | 91.4 ± 21% | 73.1 ± 18% | 81.64 ± 0.72% | 58.6 ± 1.6% |
| UCGAGAUACAUGUAAACCAAA | 81.2 ± 27% | 67.9 ± 5.7% | 82.9 ± 2.5% | 54.1 ± 4.2% |
| UCGAGCAACAUGUAAACCAAA | 94 ± 13% | 66.4 ± 14% | 81 ± 6.4% | 70 ± 9.2% |
| UCGAGCCACAUGUAAACCAAA | 38.8 ± 8.4% | 56.8 ± 2% | 37.8 ± 2.9% | 17 ± 6.5% |
| UCGAGCGACAUGUAAACCAAA | 90.1 ± 22% | 77.6 ± 25% | 83.2 ± 5.1% | 75.5 ± 6.3% |
| UCGAGCUACAUGUAAACCAAA | 59.9 ± 15% | 58.9 ± 7.3% | 25.3 ± 2.6% | 30.6 ± 2.6% |
| UCGAGGAACAUGUAAACCAAA | 92.8 ± 20% | 70.4 ± 14% | 82 ± 5.2% | 62.8 ± 6.3% |
| UCGAGGCACAUGUAAACCAAA | 9.6 ± 3.6% | 40.2 ± 5.6% | 28.6 ± 1.8% | 5.31 ± 1.4% |

| Sequence | cell viability [1] | cell viability [2] | cell viability [3] | cell viability [4] |
| --- | --- | --- | --- | --- |
| UCGAGGGACAUGUAAACCAAA | 75.5 ± 26% | 71.2 ± 2.2% | 48.4 ± 3.3% | 25.2 ± 1.6% |
| UCGAGGUACAUGUAAACCAAA | 90.9 ± 25% | 75.6 ± 15% | 67.9 ± 0.8% | 29.4 ± 4.1% |
| UCGAGUAACAUGUAAACCAAA | 91.8 ± 22% | 87.5 ± 16% | 95.1 ± 5.2% | 76.8 ± 7.7% |
| UCGAGUCACAUGUAAACCAAA | 78.5 ± 20% | 61.2 ± 8.4% | 53.4 ± 5.2% | 60.2 ± 5.9% |
| UCGAGUGACAUGUAAACCAAA | 90.6 ± 22% | 82.5 ± 16% | 85.1 ± 1.6% | 63.3 ± 0.64% |
| UCGAGUUACAUGUAAACCAAA | 79.9 ± 17% | 76.5 ± 18% | 69.6 ± 4.1% | 69.8 ± 8.3% |
| UCGAUAAACAUGUAAACCAAA | 94.3 ± 18% | 72.3 ± 4.2% | 90.4 ± 8.6% | 82.4 ± 5.2% |
| UCGAUACACAUGUAAACCAAA | 83.1 ± 18% | 96.8 ± 5.8% | 83.3 ± 7.8% | 74.5 ± 8.5% |
| UCGAUAGACAUGUAAACCAAA | 86.4 ± 17% | 79.8 ± 16% | 90.4 ± 11% | 63.8 ± 7.5% |
| UCGAUAUACAUGUAAACCAAA | 84.8 ± 20% | 86.9 ± 16% | 84.1 ± 4.1% | 75.2 ± 11% |
| UCGAUCAACAUGUAAACCAAA | 92 ± 17% | 84.6 ± 14% | 91.1 ± 4.7% | 54.8 ± 2.7% |
| UCGAUCCACAUGUAAACCAAA | 67.1 ± 6.5% | 67.8 ± 9.4% | 63.5 ± 1.6% | 25.9 ± 5.7% |
| UCGAUCGACAUGUAAACCAAA | 93.9 ± 11% | 79.5 ± 20% | 80.9 ± 9.8% | 62.9 ± 0.5% |
| UCGAUCUACAUGUAAACCAAA | 96.5 ± 22% | 74 ± 6.7% | 81.4 ± 4.5% | 72.8 ± 9.5% |
| UCGAUGAACAUGUAAACCAAA | 86.8 ± 18% | 53.7 ± 5.1% | 85.3 ± 1% | 63.4 ± 3.1% |
| UCGAUGCACAUGUAAACCAAA | 60.1 ± 15% | 32.5 ± 5.1% | 25.8 ± 1.7% | 60.8 ± 6.2% |
| UCGAUGGACAUGUAAACCAAA | 83.4 ± 16% | 58.3 ± 4% | 65.7 ± 6.8% | 39.1 ± 3.5% |
| UCGAUGUACAUGUAAACCAAA | 82.1 ± 17% | 72.1 ± 7.1% | 60 ± 2.1% | 54.7 ± 7.4% |
| UCGAUUAACAUGUAAACCAAA | 87.5 ± 16% | 61 ± 3.2% | 86.8 ± 5.4% | 70.2 ± 3.1% |
| UCGAUUCACAUGUAAACCAAA | 86.7 ± 16% | 63.8 ± 11% | 60 ± 2.7% | 50.1 ± 8% |
| UCGAUUGACAUGUAAACCAAA | 93.4 ± 17% | 70.6 ± 10% | 84.2 ± 3.4% | 63.4 ± 7% |
| UCGAUUUACAUGUAAACCAAA | 90.2 ± 18% | 88.1 ± 13% | 81.9 ± 10% | 75 ± 12% |
